# About 16,000 (4.4%) of roughly 360,000 compounds were called active. Inconclusive results, whose numbers are uncertain, are shown with a selection of clear calls. Calls come from the whole dose curve; as a rule, active = well fitted inhibition curve with a large enough effect; inconclusive = small, poorly fitted or top-dose-only effect; inactive = no such curve, though single readings can be large or run the other way. A potency beside an inconclusive call is a rough fit, not a confirmed value.
# Biological target: Bromodomain adjacent to zinc finger domain protein 2B (Homo sapiens) (UniProt Q9UIF8)
# Experiment: qHTS Assay for Inhibitors of BAZ2B; note: nearly all actives have a fitted effect of over 60% in size
# Details: AlphaScreen BAZ2B-H3K14Ac peptide displacement; series mostly up to 114 µM
# Method in brief: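 BAZ2B (50 nM) with biotin-H3(5-23)K14Ac peptide (50 nM) in PBS pH 7.4, 0.01% Tween-20, preformed 30 min, then compound 30 min at room temperature; top concentration 110uM. AlphaScreen streptavidin donor/nickel chelate acceptor beads (10 ug/mL final), 20 min dark, signal read.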
# Potency is the fitted concentration of half-maximal effect; tags give direction and shape of the fitted curve.
# Sequence of UniProt Q9UIF8 (Q9UIF8 whole entry, looked up, the tested form may be a part): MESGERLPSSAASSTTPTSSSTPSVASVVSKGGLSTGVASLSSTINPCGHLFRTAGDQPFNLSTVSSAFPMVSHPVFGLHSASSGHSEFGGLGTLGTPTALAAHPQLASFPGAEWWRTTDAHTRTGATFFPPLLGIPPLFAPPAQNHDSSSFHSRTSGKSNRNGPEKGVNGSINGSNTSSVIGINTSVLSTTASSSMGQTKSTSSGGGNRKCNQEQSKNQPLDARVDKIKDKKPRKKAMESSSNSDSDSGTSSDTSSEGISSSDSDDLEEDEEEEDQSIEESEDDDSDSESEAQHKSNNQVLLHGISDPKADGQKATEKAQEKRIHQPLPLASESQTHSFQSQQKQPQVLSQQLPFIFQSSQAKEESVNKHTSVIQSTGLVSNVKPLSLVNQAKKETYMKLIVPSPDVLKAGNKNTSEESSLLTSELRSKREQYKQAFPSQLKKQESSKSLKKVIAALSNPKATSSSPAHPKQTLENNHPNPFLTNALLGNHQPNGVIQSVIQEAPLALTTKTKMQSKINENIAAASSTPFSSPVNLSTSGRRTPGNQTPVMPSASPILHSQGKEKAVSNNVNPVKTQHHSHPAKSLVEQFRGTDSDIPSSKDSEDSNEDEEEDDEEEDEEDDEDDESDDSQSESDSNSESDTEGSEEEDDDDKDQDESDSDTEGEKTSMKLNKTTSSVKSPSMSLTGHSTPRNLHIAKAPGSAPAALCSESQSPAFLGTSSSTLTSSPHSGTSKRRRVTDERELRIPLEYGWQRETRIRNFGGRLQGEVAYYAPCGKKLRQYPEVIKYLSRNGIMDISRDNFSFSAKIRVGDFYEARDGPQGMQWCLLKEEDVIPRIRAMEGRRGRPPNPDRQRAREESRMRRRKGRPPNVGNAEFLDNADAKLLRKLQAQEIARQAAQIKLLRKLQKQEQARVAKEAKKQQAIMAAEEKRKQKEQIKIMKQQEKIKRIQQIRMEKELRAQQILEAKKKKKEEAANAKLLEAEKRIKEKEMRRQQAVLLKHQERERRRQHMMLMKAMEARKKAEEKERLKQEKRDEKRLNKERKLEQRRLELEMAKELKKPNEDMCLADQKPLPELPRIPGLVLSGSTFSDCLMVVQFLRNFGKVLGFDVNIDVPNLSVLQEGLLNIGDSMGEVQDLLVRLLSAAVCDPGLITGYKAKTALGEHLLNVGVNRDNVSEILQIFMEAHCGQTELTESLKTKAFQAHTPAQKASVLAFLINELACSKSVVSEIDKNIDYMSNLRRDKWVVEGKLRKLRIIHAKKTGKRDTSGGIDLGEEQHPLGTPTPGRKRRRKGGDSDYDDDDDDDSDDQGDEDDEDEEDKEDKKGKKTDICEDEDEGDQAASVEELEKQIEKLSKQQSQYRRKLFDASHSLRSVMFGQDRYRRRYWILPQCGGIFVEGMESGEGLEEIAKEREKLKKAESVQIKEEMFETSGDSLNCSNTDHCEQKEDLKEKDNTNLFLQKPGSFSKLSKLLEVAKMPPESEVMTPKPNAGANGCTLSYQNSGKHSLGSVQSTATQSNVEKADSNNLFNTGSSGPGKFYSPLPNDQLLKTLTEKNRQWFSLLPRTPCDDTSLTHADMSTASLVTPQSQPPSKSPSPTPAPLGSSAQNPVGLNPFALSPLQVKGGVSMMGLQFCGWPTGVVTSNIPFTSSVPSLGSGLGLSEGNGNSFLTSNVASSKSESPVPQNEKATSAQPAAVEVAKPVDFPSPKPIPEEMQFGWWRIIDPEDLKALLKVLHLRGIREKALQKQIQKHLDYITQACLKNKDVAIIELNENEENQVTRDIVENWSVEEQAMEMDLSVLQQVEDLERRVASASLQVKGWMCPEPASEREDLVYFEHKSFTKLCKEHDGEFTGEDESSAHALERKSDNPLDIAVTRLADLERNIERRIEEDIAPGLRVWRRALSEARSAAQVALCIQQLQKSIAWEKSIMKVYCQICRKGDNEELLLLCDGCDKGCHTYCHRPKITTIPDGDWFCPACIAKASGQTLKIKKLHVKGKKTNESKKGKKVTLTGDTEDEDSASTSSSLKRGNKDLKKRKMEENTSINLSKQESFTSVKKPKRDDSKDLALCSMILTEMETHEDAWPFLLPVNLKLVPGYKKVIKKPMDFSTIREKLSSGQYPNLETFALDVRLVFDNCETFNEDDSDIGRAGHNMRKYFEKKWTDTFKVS
row,SMILES,Potency
1,COc1ccc(NC(=O)Cn2c(=O)n(Cc3ccco3)c(=O)c3oc4ccccc4c32)cc1Cl,inactive
2,COc1ccc(OC)c(NC(=O)Nc2ccc(Cl)cc2)c1,"inconclusive: 89.1 µM [inhibitor, single point]"
3,COc1ccc(NC(=O)N2c3ccc(OC)cc3C(C)=CC2(C)C)cc1,active: 44.7 µM
4,CCCCCC(=O)Nc1nc(C)c(-c2csc(Nc3ccccc3OC)n2)s1,"inconclusive: 79.4 µM [inhibitor, single point]"
5,CCCn1c(SCC(=O)c2ccc3c(c2)NC(=O)CO3)nc2ccccc21,inactive
6,CC1(C)CC(=O)C2=C(C1)Nc1ccccc1NC2c1cc(Cl)ccc1O (centres undefined),"inconclusive: 89.1 µM [inhibitor, single point]"
7,CS(=O)(=O)N(CC(=O)N1CCCCC1)c1cccc(F)c1,"inconclusive: 89.1 µM [inhibitor, single point]"
8,CCc1ccc(NS(=O)(=O)c2cc(OC)ccc2OC)cc1,inactive
9,Cc1ccc(/C=N/n2c(-c3cccnc3)n[nH]c2=S)s1,inactive
10,CCOC(=O)c1c(C)[nH]c(C)c1C(=O)CSc1nnc(-c2ccco2)n1Cc1ccccc1,"inconclusive: 50.1 µM [inhibitor, partial curve]"
11,CCc1ccc(Nc2n[n+](-c3ccccc3)c(-c3ccc(OC)c(Br)c3)s2)cc1,"inconclusive: 89.1 µM [inhibitor, single point]"
12,COc1ccc(S(N)(=O)=O)cc1C(=O)NCC(C)(C)N1CCOCC1,inactive
13,Cc1ccc(OCC(=O)c2cc(C)n(C)c2C)c([N+](=O)[O-])n1,active: 56.2 µM
14,Cc1ccc2onc(CNC(=O)NCc3ccccc3)c2c1,inactive
15,CCCOc1ccc(NCC(=O)Nc2ccc(C)cc2C)cc1,"inconclusive: 50.1 µM [inhibitor, partial curve]"
16,Cc1cc(C)n(CC(C)O)c(=O)c1C#N (centres undefined),"inconclusive: 0.891 µM [inhibitor, full curve, poor fit]"
17,COc1ccc(Nc2nc(NCc3ccco3)nc(N3CCOCC3)n2)cc1,"inconclusive: 63.1 µM [inhibitor, partial curve, poor fit]"
18,O=C1c2ccccc2S(=O)(=O)N1CCS(=O)(=O)c1ccc(F)cc1,inactive
19,COc1ccc(C(=O)/C=C2/C(=O)Nc3ccccc32)cc1OC,inactive
20,CC(=O)c1cccc(S(=O)(=O)NC2CCCCCC2)c1,inactive
21,CC(=O)Nc1cccc(C(=O)OCC(=O)c2ccc(S(=O)(=O)N3CCCCC3)cc2)c1,inactive
22,COc1ccc(/C=C/C(=O)Nc2ccc3nc4c(c(Nc5ccc(OC)c(OC)c5)c3c2)CCCC4)cc1,active: 8.91 µM
23,CC1=C(C(=O)O)N2C(=O)[C@@H](NC(=O)[C@H](N)c3ccccc3)[C@H]2SC1,"inconclusive: 89.1 µM [inhibitor, single point]"
24,COc1ccc(C(=O)n2nnc3ccccc32)cc1Br,"inconclusive: 100 µM [inhibitor, single point]"
25,CCN(CC)c1ccc2cc(C(C)=O)c(=O)oc2c1,inactive

row,SMILES,Potency
1,CCN=C1S/C(=C\c2ccc(Sc3ccc(Cl)cc3)o2)C(=O)N1CC,inactive
2,Cc1nn(-c2ccccc2)c(Cl)c1/C=C1\C(=O)N(C)C(=S)N1C,"inconclusive: 70.8 µM [inhibitor, partial curve]"
3,Cc1ccc(CN(C(=O)COc2ccc([N+](=O)[O-])cc2)c2ccccn2)o1,"inconclusive: 50.1 µM [inhibitor, partial curve]"
4,Cc1ccc(-c2cc(-c3ccccc3[N+](=O)[O-])[nH]n2)c(O)c1,"inconclusive: 89.1 µM [inhibitor, single point]"
5,O=C(O)c1ccccc1SC1CC(=O)N(c2cccc3ccccc23)C1=O (centres undefined),"inconclusive: 79.4 µM [inhibitor, single point]"
6,COc1ccc(N2CCN(C(=O)CN(c3ccc(OC)cc3)S(=O)(=O)c3ccccc3)CC2)cc1,"inconclusive: 17.8 µM [inhibitor, full curve]"
7,Clc1ccc(C(c2nnnn2C2CCCC2)N2CCN(Cc3ccncc3)CC2)cc1 (centres undefined),"inconclusive: 100 µM [inhibitor, single point]"
8,CN(CCO)c1ccc(C(C(=O)c2ccccc2)c2ccc(N(C)CCO)cc2)cc1,active: 44.7 µM
9,CN(C)c1ccc(NC(=O)c2cccc([N+](=O)[O-])c2)c2ccccc12,"inconclusive: 79.4 µM [inhibitor, single point]"
10,Oc1ccc(-c2n[nH]c(=S)n2-c2ccc3c(c2)OCCO3)cc1,"inconclusive: 89.1 µM [inhibitor, single point]"
11,Cn1cccc1/C=N/n1c(-c2ccco2)n[nH]c1=S,"inconclusive: 79.4 µM [inhibitor, single point]"
12,O=C(O)c1ccc2c(=O)n(-c3ccccc3F)c(=S)[nH]c2c1,"inconclusive: 89.1 µM [inhibitor, single point]"
13,O=c1c2cc(Cl)ccc2[nH]c(=S)n1Cc1ccco1,inactive
14,COc1ccc(S(=O)(=O)Nc2ccc(O)c3ccccc23)cc1,active: 39.8 µM
15,COCCCNC(=O)Cn1c(=O)n(Cc2ccc(F)cc2)c(=O)c2sccc21,"inconclusive: 89.1 µM [inhibitor, single point]"
16,Cc1ccccc1CS(=O)(=O)c1cn(CC(=O)N2CCC(C)CC2)c2ccccc12,"inconclusive: 89.1 µM [inhibitor, single point]"
17,COc1ccc(NC2=CC(c3cccc(OC)c3)N(c3ccc(OC)cc3)C2=O)cc1 (centres undefined),"inconclusive: 39.8 µM [inhibitor, partial curve]"
18,COCCn1c(-c2ccc(OC)cc2)nc2oc3cc(OC)ccc3c(=O)c2c1=O,inactive
19,Cc1ccc(NCc2ccccc2)cc1,"inconclusive: 35.5 µM [inhibitor, partial curve]"
20,Oc1cc(-c2cccnc2)cc2cccnc12,active: 3.16 µM
21,O=[N+]([O-])c1ccc(N2CCCCC2)cc1,inactive
22,COc1ccc(/C=C/C(=O)c2cc3c(cc2N)OCO3)cc1,active: 22.4 µM
23,CC1Sc2ccc(C(=O)Nc3cc(S(C)(=O)=O)ccc3Cl)cc2NC1=O (centres undefined),"inconclusive: 89.1 µM [inhibitor, single point]"
24,Cc1occc1-c1nnc(SCC(=O)NCCc2ccccc2)n1C(C)c1ccccc1 (centres undefined),"inconclusive: 79.4 µM [inhibitor, single point]"
25,Cc1ccccc1N1CCN(C2CCCN(C(=O)c3cn4cccc(C)c4n3)C2)CC1 (centres undefined),"inconclusive: 50.1 µM [inhibitor, partial curve]"

row,SMILES,Potency
1,S=c1[nH]nc(COc2ccccc2)n1Cc1ccccc1,inactive
2,Fc1ccc(OCCCn2ccnc2)cc1,"inconclusive: 89.1 µM [inhibitor, single point]"
3,O=C(NCC(c1cccnc1)N1CCc2ccccc21)c1ccc(F)cc1 (centres undefined),inactive
4,COc1ccc(N(CC(=O)NCc2ccc3c(c2)OCO3)C(=O)CCC(=O)Nc2ccccn2)cc1,inactive
5,CCN1CCN(C(c2ccc(OC)c(OC)c2)c2nnnn2C(C)(C)C)CC1 (centres undefined),"inconclusive: 100 µM [inhibitor, single point]"
6,N#CCC(=O)N/N=C\c1ccccc1OC/C=C/c1ccccc1,active: 50.1 µM
7,CCc1ccc(S(=O)(=O)N(C(=O)c2ccncc2)c2ccc(OC(=O)c3ccncc3)cc2)cc1,"inconclusive: 44.7 µM [inhibitor, partial curve]"
8,COc1ccc(C(=S)N2CCOCC2)cc1OC(=O)c1ccc([N+](=O)[O-])cc1,"inconclusive: 35.5 µM [inhibitor, partial curve]"
9,CCOC(=O)C1CCN(C(=O)C2CC(=O)N(c3ccc4c(c3)OCCO4)C2)CC1 (centres undefined),inactive
10,COC(=O)c1ccc(Cl)cc1NC(=O)N(Cc1ccc(OC)cc1)C1CCN(C(C)=O)CC1,"inconclusive: 79.4 µM [inhibitor, single point]"
11,COc1ccc(-c2csc(NC(=O)Cc3ccccc3F)n2)cc1OC,active: 39.8 µM
12,O=C(CC1SC2=NCCN2C1=O)Nc1ccc(Br)cc1 (centres undefined),inactive
13,O=C(O)c1cc(N=Nc2c(O)ccc3ccccc23)cc(C(=O)O)c1,"inconclusive: 56.2 µM [inhibitor, partial curve]"
14,COc1cc(C(=O)N(Cc2cccnc2)c2nc3cc(C)c(C)cc3s2)cc(OC)c1OC,inactive
15,CN1c2ccccc2C(C)(C)C12C=Nc1c(cc(N3CCOCC3)c3ccccc13)O2 (centres undefined),"inconclusive: 89.1 µM [inhibitor, single point]"
16,C[C@H](NC(=O)c1nc[nH]c1C(=O)N1CCNCC1)C(=O)OC(C)(C)C,active: 50.1 µM
17,NC(=O)CC(NC(=O)Cc1ccc(Br)cc1)c1ccc(N2CCN(c3ccccn3)CC2)c([N+](=O)[O-])c1 (centres undefined),"inconclusive: 89.1 µM [inhibitor, single point]"
18,Cc1oc(C)c2c(=O)cc(-c3ccc4c(c3)OCO4)cc(OC(=O)c3cccc(Cl)c3)c12,inactive
19,O=C(NCCc1ccc(Cl)cc1Cl)c1cccnc1,inactive
20,COc1ccc(S(=O)(=O)N(Cc2nc(-c3ccc(Cl)cc3)no2)C2CCCCC2)cc1,inactive
21,C/C(=N\N=C1\NC(=O)C(CC(=O)O)S1)c1ccccn1 (centres undefined),active: 50.1 µM
22,COc1ccc2c(c1)-c1nc(/N=C/c3ccccc3O)sc1CC2,"inconclusive: 79.4 µM [inhibitor, single point]"
23,COC(=O)C1=C(O)/C(=C\c2ccc(CNS(=O)(=O)c3ccc(Cl)cc3)o2)N=C1C,"inconclusive: 50.1 µM [inhibitor, partial curve]"
24,CC1(OC(=O)C2CCCC2)C(=O)C=C2C=C(c3ccsc3)N(Cc3ccccc3)C=C2C1=O (centres undefined),"inconclusive: 50.1 µM [inhibitor, partial curve]"
